Experimental data taken from publication PMC4336329 (PLoS ONE, 2015).
Screen size: about 310,000 compounds; about 14,000 (4.5%) showed an effect of 50% or more. The effect is printed as a negative number. Some of the results follow.

molecular target: human ether-à-go-go-related gene (hERG) potassium channel (human, UniProt Q12809); test: primary screen, population patch clamp on CHO cells stably expressing hERG
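Also: peak tail current of the secondary pulse compared with the same well before compound.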

human ether-à-go-go-related gene (hERG) potassium channel, sequence (Q12809 whole entry, looked up): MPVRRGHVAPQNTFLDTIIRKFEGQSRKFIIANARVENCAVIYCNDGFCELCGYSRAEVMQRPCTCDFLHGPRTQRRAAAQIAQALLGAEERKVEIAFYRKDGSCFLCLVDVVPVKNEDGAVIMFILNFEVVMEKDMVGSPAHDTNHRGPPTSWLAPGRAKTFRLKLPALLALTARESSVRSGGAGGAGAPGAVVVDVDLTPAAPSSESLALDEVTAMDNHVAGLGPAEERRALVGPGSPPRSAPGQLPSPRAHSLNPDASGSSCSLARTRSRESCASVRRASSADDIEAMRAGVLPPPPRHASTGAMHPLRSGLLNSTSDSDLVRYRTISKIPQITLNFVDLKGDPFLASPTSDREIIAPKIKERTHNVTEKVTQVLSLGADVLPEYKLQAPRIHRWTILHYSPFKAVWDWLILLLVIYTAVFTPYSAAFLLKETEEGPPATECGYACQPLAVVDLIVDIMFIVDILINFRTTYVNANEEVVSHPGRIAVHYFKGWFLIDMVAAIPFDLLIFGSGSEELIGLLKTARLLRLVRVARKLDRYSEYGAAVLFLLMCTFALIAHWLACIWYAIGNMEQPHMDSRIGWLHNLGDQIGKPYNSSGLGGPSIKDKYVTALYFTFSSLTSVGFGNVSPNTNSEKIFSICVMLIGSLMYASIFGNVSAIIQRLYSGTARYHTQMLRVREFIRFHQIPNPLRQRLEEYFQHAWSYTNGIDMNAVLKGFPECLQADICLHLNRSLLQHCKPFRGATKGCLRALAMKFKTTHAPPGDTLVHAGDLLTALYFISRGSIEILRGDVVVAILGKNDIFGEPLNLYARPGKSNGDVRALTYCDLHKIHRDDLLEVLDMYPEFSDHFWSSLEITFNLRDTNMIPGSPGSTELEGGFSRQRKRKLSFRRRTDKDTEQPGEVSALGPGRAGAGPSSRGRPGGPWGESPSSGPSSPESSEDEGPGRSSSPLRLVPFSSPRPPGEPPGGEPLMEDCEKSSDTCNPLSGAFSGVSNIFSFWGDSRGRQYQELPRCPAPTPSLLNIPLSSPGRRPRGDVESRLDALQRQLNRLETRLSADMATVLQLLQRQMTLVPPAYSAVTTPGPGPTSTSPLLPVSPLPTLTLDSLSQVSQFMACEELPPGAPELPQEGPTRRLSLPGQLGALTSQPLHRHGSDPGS

SMILES | hERG current change (%, negative = inhibition) at 10uM [%]
CC(C)CCN(C(=O)CNC(=O)c1cccs1)C(C(=O)NC1CCCC1)c1ccncc1 (centres unmarked) | -0.388
O=C(Cn1cnc2ccccc2c1=O)NCC(=O)N1CCN(c2ccccn2)CC1 | 6.51
COc1ccc(S(=O)(=O)Oc2c(OC)cc(C(=S)N3CCOCC3)cc2OC)cc1 | 5.24
Cn1cc(CCC(=O)NCc2ccc3c(c2)OCO3)c2ccccc21 | -8.91
CC(C)C(C)NC(=O)COc1ncnc2sccc12 (centres unmarked) | 30.6
CCOc1ccc(S(=O)(=O)N(C)CC(=O)NCc2ccccn2)cc1Cl | -27.8
CCN(CC)C(=O)N1CCN(S(=O)(=O)c2ccc(C)c(C)c2)CC1 | 3.67
Cn1c(CNc2nc(-c3ccccc3)cs2)nnc1SCC(=O)OC1CCCCC1 | -10.1
Cc1cc(C)c2c(n1)SCC(=O)N2CC(=O)NCCC1=CCCCC1 | 8.75
Cc1ccc2[nH]cc(C(=O)CCl)c2c1 | -7.65
Cc1cc(Cl)nc2c(C(C)C)cccc12 | 33
O=C(Nn1cnc2ccccc2c1=O)c1ccc(Cl)c([N+](=O)[O-])c1 | 5.55
Cc1ccc(C2=NC(C)(C)NC2=O)cc1 | 1.42
O=C(c1ccccc1Oc1ccc(C(F)(F)F)cc1[N+](=O)[O-])N1CCOCC1 | 1.22
CC(C)NC(=S)Nc1ccc2cn[nH]c2c1 | 8.24
O=C(NC1CCCCC1)c1ccc(Cl)c(NC(=O)c2ccccc2F)c1 | -7.68
Cc1nc2ccccc2c(=O)n1/N=C/c1ccc(O)cc1O | 10.4
CCNC(=O)n1cc(-n2cncn2)c(-c2ccccc2)n1 | -0.882
O=C(Nc1cccn2ncnc12)c1ccc(Cl)cc1 | -2.08
Cc1ccc(NS(=O)(=O)c2ccc(C(=O)N3CCN(c4ncccn4)CC3)cc2)cc1 | -29.9
Cc1cccc2cc(C#N)c(SCC#N)nc12 | 26
O=C(NCCc1ccccc1)C1CCC(CNc2nc(=S)[nH]c3ccccc23)CC1 (centres unmarked) | 9.54
O=C(NCCCc1ccccc1)C(=O)c1c[nH]c2ccccc12 | 11.6

SMILES | hERG current change (%, negative = inhibition) at 10uM [%]
COc1ccc(CCNC(=O)CN2C(=O)CCSc3ccccc32)c(OC)c1 | 0.44
Cc1cccc(CCNC(=O)CCc2nc(-c3ccccc3F)no2)c1 | -1.49
Cc1ccc2nc(NC(=O)CN3CCOCC3)sc2c1 | -17.4
CNC(=S)N(CCCN(C)C)Cc1cc2cc3c(cc2[nH]c1=O)OCCO3 | 14.5
COC(=O)c1ccc2c(=O)[nH]c(COC(=O)c3cccc(S(=O)(=O)N4CCOCC4)c3)nc2c1 | 9.87
COc1ccc(-c2noc(CSc3nc4ccccc4c(=O)n3-c3ccccc3)n2)cc1 | -7.31
COCCn1nnnc1C(C(C)C)N(Cc1cccnc1)Cc1ccccc1Cl (centres unmarked) | -18.5
O=C(Cn1c(-c2ccccn2)nc2ccccc21)NCCN1CCOCC1 | 4.17
CC(=O)OCc1c(C(F)(F)F)nn(C)c1SCc1ccc(Cl)cc1 | 8.19
CC(C)Oc1ccc(/C=N/NC(N)=S)cc1 | 15.3
O=C1Nc2cc(C(=O)N3CCN(c4ccccn4)CC3)ccc2S/C1=C\c1ccccc1 | 1.94
Nc1nc(NCc2ccco2)nc(NCCO)c1[N+](=O)[O-] | 3.22
CN(C)CCNC(=O)/C=N/O | 10.3
COc1ccc2c(-c3ccccc3)cc(SCC(=O)NC3CCS(=O)(=O)C3)nc2c1 (centres unmarked) | 15.1
O=S(=O)(c1ccc(F)cc1)N1CCN(c2ccccn2)CC1 | -0.814
O=C(Nc1ccc(Cl)cc1C(=O)NCC1CCCO1)c1ccco1 (centres unmarked) | -10.8
COc1ccc(NS(=O)(=O)c2ccc(Cl)c(C(=O)O)c2)cc1S(=O)(=O)N1CCCCC1 | 36.9
CC(C)CN(C(=O)COC(=O)CSc1ccccc1F)c1c(N)n(Cc2ccccc2)c(=O)[nH]c1=O | -0.603
O=C(/C=C/c1ccc2c(c1)OCO2)N1CCN(c2n[nH]c(=O)[nH]c2=O)CC1 | 22.7
O=C(Nc1ccccc1)NC1(C(=O)N2CCC(O)CC2)CCCCC1 | -15.7
Cc1ccc(OCC(O)CN2CCOCC2)c(C)c1.Cl (centres unmarked) | 20.2
NC1=NC(=O)/C(=C/c2ccccc2OS(=O)(=O)c2ccc3ccccc3c2)S1 | 4.27
COC(=O)Cn1cc(C=C2C(=O)NC(=O)NC2=O)c2ccccc21 | 12.5

SMILES | hERG current change (%, negative = inhibition) at 10uM [%]
Cc1ccc(NS(=O)(=O)c2cccc(C(=O)NCCCn3ccnc3)c2)cc1 | 7.72
Cc1ccc(C(=O)CSc2nnc(-c3ccco3)n2Cc2ccccc2)cc1 | -17.8
CC(=O)C(C)Sc1nnc(-c2ccccc2F)n1C1CC1 (centres unmarked) | 26.5
CCCc1cc(=O)[nH]c(SCC(=O)c2c[nH]c3ccccc23)n1 | 23.3
Cn1c(N)c(C(=O)COC(=O)C2CCCCC2)c(=O)n(C)c1=O | -11.2
CC/C(=N/NS(=O)(=O)c1ccc(Cl)cc1)c1ccc(O)cc1 | -27.7
COc1cc(N(C)C)c([N+](=O)[O-])cc1C(=O)N1CCN(Cc2ccccc2)CC1 | 9.99
CC(C)C(OC(=O)c1ccco1)C(=O)NCc1ccccc1 (centres unmarked) | 11.2
CCCN1Cc2cccc(C(=O)Nc3ccc(CC)cc3)c2C1=O | 8.1
Cc1ccc(S(=O)(=O)Nc2ccccc2CNc2ncc(Br)cc2Br)cc1 | 4.66
COC(CNC(=O)C1CCN(S(=O)(=O)c2cccc3nsnc23)CC1)OC | 14.3
COc1ccc2c(c1)c(C(=O)CN1CCC3(CC1)OCCO3)c(C)n2C | -3.05
CS(=O)(=O)Nc1cccc(-c2cnc3ccccc3n2)c1 | -70.4
C=CCOc1ccc(C2C(C#N)=C(N)N(N(C)C)C3=C2C(=O)CCC3)cc1 (centres unmarked) | -32.1
CC1CN(C(=O)CCn2c(=O)oc3ccccc32)CC(C)O1 (centres unmarked) | 6.91
CC(=O)N/C(=C/c1cccnc1)C(=O)Nc1ccc(Cl)cc1 | -24.3
Nc1nc(NCCOCCO)nc(Nc2cccc(F)c2)c1[N+](=O)[O-] | 7.09
CCOC(=O)C1CCCN(C(=O)c2ccc(S(=O)(=O)NCc3ccco3)cc2)C1 (centres unmarked) | -4.7
CC(=O)N(c1ccc2oc(=O)sc2c1)S(=O)(=O)c1cccs1 | -6.67
CCCOc1ccc(C(CC(=O)O)NC(=O)C23CC4CC(CC(C4)C2)C3)cc1 (centres unmarked) | -4.63
CCCC1(CCC)C(=O)NC(=NCCc2ccc(OC)c(OC)c2)NC1=O | 13.4
CCOC(=O)C1CCN(C(=O)c2cccc(N3C(=O)NC4CC3(C)Oc3ccc(C)cc34)c2)CC1 (centres unmarked) | -44.6
Cc1c(C(=O)N2CCN(C3CCS(=O)(=O)C3)CC2)oc2c(F)cccc12 (centres unmarked) | -9.8

SMILES | hERG current change (%, negative = inhibition) at 10uM [%]
CCCCN(C)C1CCN(C(=S)Nc2ccc(OC)cc2)CC1 | -26
NNC(=O)CSc1nnnn1-c1ccccc1 | -22.3
CN1CCN(C(c2cccc(C(F)(F)F)c2)c2nnnn2C(C)(C)C)CC1 (centres unmarked) | 2.28
Oc1ccc(-c2nccc(-c3ccc(Br)cc3)n2)cc1 | 18.7
CC(C)CCN1C(=O)c2ccc(C(=O)NCc3ccco3)cc2C1=O | -13.3
COc1cccc(S(=O)(=O)Nc2ccc3sc(C)nc3c2)c1 | -14.2
Cc1ccc(C2c3c(C)nn(-c4ccc([N+](=O)[O-])cc4)c3N=C3C(=O)Nc4ccccc4N32)cc1 (centres unmarked) | 2.32
O=C1C2C3C=CC(C3)C2C(=O)N1c1cccnc1 (centres unmarked) | 12.9
COc1cc(C(=O)NCc2ccc3c(c2)OCO3)ccc1OCc1c(C)noc1C | -2
CC1CN(C2CCN(S(=O)(=O)Cc3ccccc3)CC2)CC(C)O1 (centres unmarked) | -23.2
CC(C)c1ccc2oc(=O)cc(CN3CCN(Cc4ccccc4)CC3)c2c1 | 17.5
O=C(CCc1n[nH]c(=O)[nH]c1=O)N/N=C/c1ccc(Br)o1 | 16.2
O=C(Nc1cccc(C(=O)Nc2ccccc2F)c1)c1ccccc1 | 4.84
CCCSc1cc(N2CCCC2)nc(-c2ccccc2)n1 | 15.5
COc1ccc(CNC(C)C23CC4CC(CC(C4)C2)C3)c(OC)c1OC.Cl (centres unmarked) | -5.24
CCNS(=O)(=O)c1ccc(CCC(=O)N2CCN(c3cccc(Cl)c3)CC2)cc1 | -32.7
C=C(C)CNC(=S)N/N=C/C1=CCC2CC1C2(C)C (centres unmarked) | -0.625
Cc1ccc(S(=O)(=O)Nc2cc(C(=O)Nc3cc(C)cc(C)c3)ccc2Cl)cc1 | -5.44
c1cncc(-c2nc(NCC3COc4ccccc4O3)c3ccccc3n2)c1 (centres unmarked) | -16
CCn1cc(C(=O)NCc2ccccc2)c(=O)c2cc(F)c(N3CCN(C(=O)c4ccco4)CC3)cc21 | -39.6
